# According to the supplement of paper PMC6531468:
# The other results are listed elsewhere or left out. Values come from read counts of a selection and are noisy. Scores sum up all selected molecules that hold the word; the word was not tested alone.
# Tested on: IMP3 KH1-4
# Assay: 6-mer SELEX enrichment z-score vs GST control; IMP3 is the RNA-binding protein IGF2BP3; higher = more enriched by binding
# Details: construct: KH1-4 (164-579); SELEX round: R4
# Protocol: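 SELEX-seq with GST-tagged IMP3 KH1-4 (Pro164-Lys579) and an N40 RNA pool, round 4. 6-mer z-score of sequence-tag enrichment normalised to the corresponding GST SELEX round; RNA k-mers written as DNA (T for U).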
# Sequence of IMP3 KH1-4 (chain, as listed by the source): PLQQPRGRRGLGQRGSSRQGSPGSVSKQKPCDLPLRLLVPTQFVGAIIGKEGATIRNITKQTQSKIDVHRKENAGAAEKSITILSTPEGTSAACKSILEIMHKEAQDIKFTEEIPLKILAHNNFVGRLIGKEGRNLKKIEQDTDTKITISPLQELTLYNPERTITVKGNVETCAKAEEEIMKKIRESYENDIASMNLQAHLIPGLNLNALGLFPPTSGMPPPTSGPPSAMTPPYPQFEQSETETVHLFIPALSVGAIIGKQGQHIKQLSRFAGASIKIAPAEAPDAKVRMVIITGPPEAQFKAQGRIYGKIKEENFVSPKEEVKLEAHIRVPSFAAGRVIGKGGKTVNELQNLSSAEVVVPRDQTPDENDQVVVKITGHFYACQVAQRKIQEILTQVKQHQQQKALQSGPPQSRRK
row,Sequence,6-mer SELEX enrichment z-score
1,TAGTGC,-0.165
2,GTGTTT,-0.17
3,TGGCCC,-0.333
4,TCCATC,0.542
5,GAACTC,-1.04
6,TAAAAG,-0.292
7,GGCGAT,0.113
8,GGCTGA,-0.217
9,GAGGTG,0.208
10,GAACAC,0.457
11,ACCTAC,-1.33
12,GTCTGT,0.052
13,AGGAGT,0.625
14,ATGCTC,-0.105
15,AGCTAA,-0.776
16,TAACTT,0.88
17,GAGGAA,0.829
18,TTCCAA,-0.248
19,TTTTAA,1.18
20,ATTTCG,0.077

row,Sequence,6-mer SELEX enrichment z-score
1,GATCCA,-0.604
2,TGTCAC,0.1
3,GGTTTT,0.098
4,GATGGA,1.02
5,ACACGT,-0.057
6,TGTGCC,-0.58
7,CAAATA,1.08
8,CCGTTA,0.18
9,TGGTTC,-0.141
10,ACTCCC,-0.445
11,AACCGG,-0.868
12,AAACGC,-1.27
13,CAACAT,1.58
14,GGAAGA,0.956
15,ACTAGA,0.21
16,CAAGAG,-1.41
17,GAGACT,-0.541
18,AATGCT,0.292
19,GCTCCT,0.143

# Tested on: IMP3 RRM1-2
# Sequence (chain, as listed by the source): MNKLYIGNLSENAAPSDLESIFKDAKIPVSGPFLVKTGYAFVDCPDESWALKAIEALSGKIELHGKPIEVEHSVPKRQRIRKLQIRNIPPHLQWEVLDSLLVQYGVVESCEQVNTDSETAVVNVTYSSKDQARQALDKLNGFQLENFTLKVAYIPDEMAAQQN
# Assay: as above
# Details: construct: RRM1-2 (1-163); SELEX round: R2
# Protocol: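 SELEX-seq with GST-tagged IMP3 RRM1-2 (Met1-Asn163) and an N40 RNA pool, round 2. 6-mer enrichment z-score normalised to GST SELEX. RNA written as DNA (T = U).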
row,Sequence,6-mer SELEX enrichment z-score
1,TAGTGC,0.17
2,GTGTTT,0.461
3,TGGCCC,-0.268
4,TCCATC,0.893
5,GAACTC,-0.544
6,TAAAAG,-1.59
7,GGCGAT,0.125
8,GGCTGA,0.065
9,GAGGTG,-0.086
10,GAACAC,2.48
11,ACCTAC,-0.551
12,GTCTGT,0.308
13,AGGAGT,-0.082
14,ATGCTC,0.089
15,AGCTAA,-0.395
16,TAACTT,-0.083
17,GAGGAA,-1.01
18,TTCCAA,-0.001
19,TTTTAA,-0.057
20,ATTTCG,0.21

row,Sequence,6-mer SELEX enrichment z-score
1,GATCCA,-0.282
2,TGTCAC,0.27
3,GGTTTT,0.453
4,GATGGA,-0.626
5,ACACGT,0.246
6,TGTGCC,-0.057
7,CAAATA,-0.426
8,CCGTTA,-0.179
9,TGGTTC,0.493
10,ACTCCC,-0.338
11,AACCGG,-1.34
12,AAACGC,-1.36
13,CAACAT,2.48
14,GGAAGA,-1.08
15,ACTAGA,-0.598
16,CAAGAG,-0.547
17,GAGACT,-0.622
18,AATGCT,-0.397
19,GCTCCT,0.073

# Target: IMP3 full-length (UniProt O00425)
# Sequence of UniProt O00425 (O00425 whole entry): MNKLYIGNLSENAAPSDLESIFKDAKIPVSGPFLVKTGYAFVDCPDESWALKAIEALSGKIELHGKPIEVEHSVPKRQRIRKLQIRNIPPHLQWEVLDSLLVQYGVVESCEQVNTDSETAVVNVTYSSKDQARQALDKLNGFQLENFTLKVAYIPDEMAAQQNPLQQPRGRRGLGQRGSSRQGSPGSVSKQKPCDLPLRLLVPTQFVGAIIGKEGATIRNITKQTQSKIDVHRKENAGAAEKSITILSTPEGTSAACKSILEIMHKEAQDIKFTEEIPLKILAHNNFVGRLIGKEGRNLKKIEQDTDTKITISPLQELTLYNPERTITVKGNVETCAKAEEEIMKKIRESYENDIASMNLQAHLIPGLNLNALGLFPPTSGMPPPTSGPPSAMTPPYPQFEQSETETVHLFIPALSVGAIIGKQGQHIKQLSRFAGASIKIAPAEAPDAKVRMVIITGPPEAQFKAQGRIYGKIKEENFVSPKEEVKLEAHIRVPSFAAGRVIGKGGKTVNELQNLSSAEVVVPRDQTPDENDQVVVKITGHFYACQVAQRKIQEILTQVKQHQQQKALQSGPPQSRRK
# Assay: as above
# Details: construct: FL IMP3 (1-579); SELEX round: R4
# Protocol: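 SELEX-seq with GST-tagged full-length IMP3 and an N40 RNA pool, round 4. Each 6-mer is scored as an enrichment z-score of sequence tags containing it, normalised to the matching GST SELEX round. RNA written as DNA (T = U).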
row,Sequence,6-mer SELEX enrichment z-score
1,TAGTGC,-0.035
2,GTGTTT,-0.114
3,TGGCCC,0.008
4,TCCATC,0.692
5,GAACTC,-0.767
6,TAAAAG,-1.17
7,GGCGAT,0.683
8,GGCTGA,0.102
9,GAGGTG,0.212
10,GAACAC,1.12
11,ACCTAC,-1.38
12,GTCTGT,0.183
13,AGGAGT,0.306
14,ATGCTC,0.034
15,AGCTAA,-0.642
16,TAACTT,-0.084
17,GAGGAA,-0.198
18,TTCCAA,-0.593
19,TTTTAA,0.047
20,ATTTCG,0.025

row,Sequence,6-mer SELEX enrichment z-score
1,GATCCA,-0.538
2,TGTCAC,0.356
3,GGTTTT,0.092
4,GATGGA,-0.135
5,ACACGT,0.502
6,TGTGCC,-0.396
7,CAAATA,-0.09
8,CCGTTA,-0.033
9,TGGTTC,0.149
10,ACTCCC,-1.02
11,AACCGG,-0.547
12,AAACGC,-1.61
13,CAACAT,2.71
14,GGAAGA,-0.189
15,ACTAGA,-0.514
16,CAAGAG,-0.682
17,GAGACT,-0.649
18,AATGCT,-0.345
19,GCTCCT,0.105
